Assay results as given in PMC4336329 (PLoS ONE, 2015).
Screen size: about 310,000 compounds; about 14,000 (4.5%) showed an effect of 50% or more. The effect is printed as a negative number. The list shows a part of the results.

target: human ether-à-go-go-related gene (hERG) potassium channel (human, UniProt Q12809); assay: primary screen, population patch clamp on CHO cells stably expressing hERG
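Note: peak tail current of the secondary pulse compared with the same well before compound.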

human ether-à-go-go-related gene (hERG) potassium channel, sequence (Q12809 whole entry, looked up): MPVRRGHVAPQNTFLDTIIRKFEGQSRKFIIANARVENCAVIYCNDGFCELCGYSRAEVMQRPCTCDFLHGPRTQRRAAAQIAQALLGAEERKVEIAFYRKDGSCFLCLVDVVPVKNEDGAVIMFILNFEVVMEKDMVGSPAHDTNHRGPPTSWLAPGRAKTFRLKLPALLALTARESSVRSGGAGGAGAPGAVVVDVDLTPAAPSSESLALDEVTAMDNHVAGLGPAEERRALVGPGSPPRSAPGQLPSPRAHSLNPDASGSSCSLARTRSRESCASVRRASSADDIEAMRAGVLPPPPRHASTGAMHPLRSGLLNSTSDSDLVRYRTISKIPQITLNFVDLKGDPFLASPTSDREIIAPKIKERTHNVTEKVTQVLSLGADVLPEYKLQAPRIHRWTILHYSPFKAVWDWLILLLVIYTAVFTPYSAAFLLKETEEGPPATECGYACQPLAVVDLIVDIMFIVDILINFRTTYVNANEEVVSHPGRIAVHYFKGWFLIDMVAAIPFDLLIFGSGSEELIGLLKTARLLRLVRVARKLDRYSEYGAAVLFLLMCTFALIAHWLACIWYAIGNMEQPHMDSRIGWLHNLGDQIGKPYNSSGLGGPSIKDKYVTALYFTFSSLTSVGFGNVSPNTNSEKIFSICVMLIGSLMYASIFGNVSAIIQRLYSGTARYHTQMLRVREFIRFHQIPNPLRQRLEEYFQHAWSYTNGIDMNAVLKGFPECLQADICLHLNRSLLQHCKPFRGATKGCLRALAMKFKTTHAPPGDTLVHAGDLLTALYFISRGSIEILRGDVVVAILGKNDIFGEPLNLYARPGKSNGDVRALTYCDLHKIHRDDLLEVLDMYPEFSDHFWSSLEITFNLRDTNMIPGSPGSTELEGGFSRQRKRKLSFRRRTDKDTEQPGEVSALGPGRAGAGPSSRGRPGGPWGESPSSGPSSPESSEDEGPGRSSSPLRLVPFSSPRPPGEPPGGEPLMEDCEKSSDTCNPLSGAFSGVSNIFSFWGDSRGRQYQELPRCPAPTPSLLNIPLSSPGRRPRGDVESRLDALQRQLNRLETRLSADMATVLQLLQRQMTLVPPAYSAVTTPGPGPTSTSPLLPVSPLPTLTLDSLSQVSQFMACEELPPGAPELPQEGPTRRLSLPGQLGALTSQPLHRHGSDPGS

Row | Structure (SMILES) | hERG current change (%, negative = inhibition) at 10uM [%]
1 | C#CC[N+](C)(C)CCN1C(=O)C2C(c3ccccc3)C=CC(c3ccccc3)C2C1=O.[Br-] (stereo not shown) | 6.61
2 | Cc1noc(C)c1C(=O)NCCCc1ccccc1 | 3.39
3 | CN(C)S(=O)(=O)c1cccc(NC(=S)N/N=C/C(=O)c2ccccc2)c1 | -48.5
4 | CCN(Cc1ccncc1)C(=S)Nc1ccc(Cl)cc1 | 12.8
5 | Cc1ccc(S(=O)(=O)NN2C(=O)/C(=C/c3cccnc3)SC2=S)cc1 | 5.28
6 | O=S(=O)(c1ccc(Cl)cc1)N1CCN=C1SCc1cccnc1 | 4.92
7 | NC(=O)C1CCCN(C(=S)Nc2cccc3ccccc23)C1 (stereo not shown) | -4.07
8 | CCOc1ccccc1NC(=O)CCNC(=O)c1ccco1 | 12.6
9 | COC(=O)CN1C(=O)c2cccc3cccc1c23 | -5.49
10 | COc1ccc(NC(=O)C#Cc2ccccc2)cc1 | -2.36
11 | COc1ccc(Cl)cc1S(=O)(=O)Oc1ccc(NC(C)=O)cc1 | -51.7
12 | O=C(COc1ccccc1)N1CCN(C(=O)COc2ccccc2)CC1 | -32.2
13 | [N-]=[N+]=CC(=O)C(O)(c1ccccc1)C(Cl)c1ccccc1 (stereo not shown) | 9.82
14 | C=CCn1c(SCc2cccc(F)c2)nc2cc(C(=O)N3CCC(C(N)=O)CC3)ccc2c1=O | -34.7
15 | O=C(COC(=O)Cc1ccc(S(=O)(=O)N2CCOCC2)s1)Nc1ccc2c(c1)OCO2 | -19.6
16 | Cc1ccc2nc(N(CCCN(C)C)C(=O)c3ccco3)sc2c1.Cl | -65.4
17 | O=C(O)c1c2c(nc3ccccc13)/C(=C/c1cccc([N+](=O)[O-])c1)CCC2 | 18.8
18 | Cc1ccc(/C=N/NC(=O)c2cccc(S(=O)(=O)N3CCOCC3)c2)o1 | -2.9
19 | O=C(Cc1ccc2c(c1)OCCO2)N1CCN(S(=O)(=O)c2cccs2)CC1 | 10
20 | COc1ccc(C(=O)C23CN4CN(CN(C4)C2)C3)cc1 | 4.01

Row | Structure (SMILES) | hERG current change (%, negative = inhibition) at 10uM [%]
21 | O=C(COC(=O)CC1SC(N2CCCC2)=NC1=O)Nc1c(F)c(F)c(F)c(F)c1F (stereo not shown) | -12.6
22 | CCCS(=O)(=O)N1CCN=C1SCc1cccc(C)c1 | -21.6
23 | Cc1nc2c(Br)c(C)nn2c2c1CCC2 | 2.69
24 | CCc1ccc2nc(SCC(=O)N(CC)CC)c(C#N)cc2c1 | -12.8
25 | CC(=O)c1c(O)c2ccccc2n(C)c1=O | 17.1
26 | N#Cc1cc(N)ccc1Sc1ccc(Cl)cc1 | -6.81
27 | CCN(CC(=O)Nc1ccc(NC(C)=O)cc1)C(=O)c1cccc(S(=O)(=O)N2c3ccccc3CC2C)c1 (stereo not shown) | -18.2
28 | COc1cc(C)ccc1OCCOCCOc1ccccc1[N+](=O)[O-] | -29.5
29 | Cc1cccc(NC(=S)N=Nc2c(O)n(C)c3ccc(S(=O)(=O)N4CCOCC4)cc23)c1 | 5.02
30 | CCOC(=O)c1cn2nc(N3CCCCC3)ccc2n1 | -8.23
31 | COc1cccc(-c2csc3nc[nH]c(=O)c23)c1 | 17.3
32 | COC(=O)C(C#N)C(=C1C(=O)CC(C)(C)CC1=O)c1ccc(O)cc1 (stereo not shown) | 17.2
33 | COCCNC(=O)CN1c2ccccc2CC1C (stereo not shown) | 0.0464
34 | O=C(Oc1ccc([N+](=O)[O-])cc1)c1ccc2ccccc2n1 | 2.78
35 | O=c1[nH]nc(Cc2ccccc2)c2ccccc12 | 4.16
36 | CC1CCCN(CCCNC(=O)c2ccc3c(c2)N(Cc2ccccc2F)C(=O)c2ccccc2S3(=O)=O)C1 (stereo not shown) | 2.84
37 | Cn1c(C(=O)N2CCN(C(=O)c3ccco3)CC2)cc2c(=O)n(C)c3ccccc3c21 | -22.3
38 | COc1ccc(C)cc1N(CC(=O)N1CCCC1)S(C)(=O)=O | 10.2
39 | CCN(CC(=O)NCc1ccc(Cl)cc1)C(=O)/C=C/c1cc(OC)c(OC)c(OC)c1 | 3.83
40 | CCc1cccc(NC(=O)CCc2nc3sc4c(c3c(=O)[nH]2)CCCC4)c1 | -20.4

Row | Structure (SMILES) | hERG current change (%, negative = inhibition) at 10uM [%]
41 | O=C(COC(=O)/C=C/c1ccccc1F)Nc1nnc(-c2ccccc2)o1 | -2.36
42 | COc1ccc(Cl)cc1NC(=O)NCc1cccnc1 | -2.64
43 | OCCN(Cc1ccccc1)Cc1nc(CC2CC2)no1 | 20.1
44 | CCCNC(=S)N1CCC(c2nc3cc(C)c(C)cc3[nH]2)CC1 | -24.5
45 | O=C(Nc1ccc(F)cc1)/C(=C1/CCCCCN1)[N+](=O)[O-] | -10
46 | CC1CN(C(=O)c2cccn(Cc3c(Cl)cccc3Cl)c2=O)CC(C)O1 (stereo not shown) | 5.84
47 | CCOC(=O)NC(c1cccc(Cl)c1)C1CCCCCC1=O (stereo not shown) | -9.97
48 | CCOc1ccc(NC(=O)CCn2ccnc2)cc1 | 22.8
49 | Cc1ccc(C(=O)NNC(=O)CSc2n[nH]c(-c3cccnc3)n2)cc1 | 15.3
50 | COc1ccc(NC(=O)c2cccc(C#N)c2)cc1NS(=O)(=O)c1ccc(F)cc1 | 8.63
51 | CCCCC(=O)NC(c1ccc(OC)c(OC)c1)c1c(O)ccc2ccccc12 (stereo not shown) | -13.7
52 | CC(NCC1(N2CCOCC2)CCCCC1)C(=O)Nc1ccc(Cl)cc1Cl.O=C(O)C(=O)O (stereo not shown) | -74.6
53 | O=C(CS)Nc1ccc2ccccc2c1 | 20.8
54 | Cn1c(=O)n(C)c2cc(S(=O)(=O)NCCc3ccccc3)ccc21 | 11.6
55 | NNC(=O)c1cncc(Br)c1 | 12.2
56 | O=C(CSc1ncccn1)N1CCC(Cc2ccccc2)CC1 | 0.781
57 | Cl.Cn1cccc1CNCCc1ccccc1 | -1.74
58 | CSCCC(NS(=O)(=O)c1ccccc1F)C(=O)NCc1cccs1 (stereo not shown) | 4.25
